We go through 58 variants from the supplement of paper PMC11125491.

± gives the standard deviation of the averaged measurements. Growth of baker's yeast expressing single-residue variants of Pneumocystis jirovecii dihydrofolate reductase in 8.8 or 44 µM methotrexate (about 75% and 90% inhibition of the wild type). Selection coefficient per generation; 0 = like wild type, above 0 = less sensitive, below 0 = more sensitive or loss of function. No active / inactive call per row; the paper calls resistant above 0.220 (8.8 µM) or 0.243 (44 µM) together with a significance test. At 44 µM about 15% of codons end with one read or none, so the lowest values are floors (replicate rank correlation 0.74; 0.94 at 8.8 µM).

B1: UniProt A0EPZ9; numbered along this chain (parent)
chain: MDWQKSLTLIVALTLSRGIGLKNDLPWKLKSDMMFFSRVTSGLLVTRSTGQMNVVLMGRKTWESLPAHSRPLKNRINVVISRQEVLDLGGGAYHARSLDDALALLSQIYDSTSKIQLNRVFVIGGGELCKAAMEHSRLNRIIATVIHNEVDCDVFFPIDFRSSQSCLPWRKQDHSVLEAWVGSKVPQGKINENGFIYEFEMWIRDI

In the data set the parent is B1. Nature of the data set: selection coefficient against synonymous wild-type codons (log2 per generation); higher = faster growth than wild type. Conditions: with Saccharomyces cerevisiae carrying the variant on a plasmid. On the procedure:
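Pooled growth of yeast carrying single-residue variants of P. jirovecii dihydrofolate reductase (own DFR1 gene intact), two passages at 30 °C, three cultures, sequenced before and after. Codons with under 15 starting reads are left out; codons of one change are averaged.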

As to N53C, the “selection coefficient against synonymous wild-type codons (log2)” value (“selection coefficient … (log2)” below) reads like this: (methotrexate 8.8 µM) -0.142 ± 0.099; (methotrexate 44 µM) -0.163 ± 0.12.

In the case of K184F, the “selection coefficient … (log2)” value runs as follows: (methotrexate 8.8 µM) -0.338 ± 0.079; (methotrexate 44 µM) -0.416 ± 0.048.

Take L43M: the “selection coefficient … (log2)” value reads like this: (methotrexate 8.8 µM) -0.0166 ± 0.026; (methotrexate 44 µM) 0.0179 ± 0.051.

F35N: the “selection coefficient … (log2)” value by setting is: (methotrexate 8.8 µM) 0.866 ± 0.016; (methotrexate 44 µM) 1.14 ± 0.026.

For the variant R96C, the “selection coefficient … (log2)” value reads like this: (methotrexate 8.8 µM) -0.372 ± 0.0048; (methotrexate 44 µM) -0.361 ± 0.054.

Regarding L138D, the “selection coefficient … (log2)” value is, setting by setting: (methotrexate 8.8 µM) -0.226 ± 0.0049; (methotrexate 44 µM) -0.115 ± 0.11.

Take L138Y: the “selection coefficient … (log2)” value is, setting by setting: (methotrexate 8.8 µM) 0.0182 ± 0.024; (methotrexate 44 µM) 0.0602 ± 0.025.

Consider S165E, for which the “selection coefficient … (log2)” value was determined as 0.0578 ± 0.028 (methotrexate 8.8 µM) and 0.00338 ± 0.1 (methotrexate 44 µM).

S165I: the “selection coefficient … (log2)” value (methotrexate 8.8 µM) was determined as 0.0123 ± 0.035 and the “selection coefficient … (log2)” value (methotrexate 44 µM) is -0.0908 ± 0.061.

Take I123L: the “selection coefficient … (log2)” value runs as follows: (methotrexate 8.8 µM) 0.77 ± 0.026; (methotrexate 44 µM) 1.22 ± 0.069.

As for I123M, the “selection coefficient … (log2)” value is -0.0338 ± 0.028 (methotrexate 8.8 µM) and 0.36 ± 0.031 (methotrexate 44 µM).

As for I123D, the “selection coefficient … (log2)” value is, setting by setting: (methotrexate 8.8 µM) -0.853 ± 0.033; (methotrexate 44 µM) -0.348 ± 0.045.

For R137K, the “selection coefficient … (log2)” value was 0.0851 ± 0.011 (methotrexate 8.8 µM) and 0.251 ± 0.095 (methotrexate 44 µM).

Take R137Q: the “selection coefficient … (log2)” value by setting is: (methotrexate 8.8 µM) 0.077 ± 0.057; (methotrexate 44 µM) 0.195 ± 0.12.

On to R137W, for which the “selection coefficient … (log2)” value reads like this: (methotrexate 8.8 µM) -0.0465 ± 0.029; (methotrexate 44 µM) 0.025 ± 0.052.

R137V: the “selection coefficient … (log2)” value by setting is: (methotrexate 8.8 µM) -0.289 ± 0.038; (methotrexate 44 µM) -0.324 ± 0.17.

For M133D, the “selection coefficient … (log2)” value reads like this: (methotrexate 8.8 µM) -0.651 ± 0.16; (methotrexate 44 µM) -0.277 ± 0.066.

For M133H, the “selection coefficient … (log2)” value was -0.521 ± 0.096 (methotrexate 8.8 µM) and -0.351 ± 0.07 (methotrexate 44 µM).

As to M133K, the “selection coefficient … (log2)” value runs as follows: (methotrexate 8.8 µM) -0.358 ± 0.044; (methotrexate 44 µM) 0.0803 ± 0.35.

In the case of P168S, the “selection coefficient … (log2)” value reads like this: (methotrexate 8.8 µM) -0.0536 ± 0.078; (methotrexate 44 µM) -0.0834 ± 0.19.

P168F: the “selection coefficient … (log2)” value is, setting by setting: (methotrexate 8.8 µM) -0.358 ± 0.079; (methotrexate 44 µM) -0.291 ± 0.077.

On to N148A, for which the “selection coefficient … (log2)” value (methotrexate 8.8 µM) is -0.0988 ± 0.049 and the “selection coefficient … (log2)” value (methotrexate 44 µM) is -0.212 ± 0.14.

With W180P, the “selection coefficient … (log2)” value was -0.579 ± 0.18 (methotrexate 8.8 µM) and -0.285 ± 0.11 (methotrexate 44 µM).

As to G182A, the “selection coefficient … (log2)” value is -0.184 ± 0.061 (methotrexate 8.8 µM) and -0.109 ± 0.14 (methotrexate 44 µM).

On to G182C, for which the “selection coefficient … (log2)” value is, setting by setting: (methotrexate 8.8 µM) -0.262 ± 0.078; (methotrexate 44 µM) -0.333 ± 0.14.

Take P157W: the “selection coefficient … (log2)” value (methotrexate 8.8 µM) is -0.563 ± 0.17 and the “selection coefficient … (log2)” value (methotrexate 44 µM) is -0.46 ± 0.019.

For the variant P157Y, the “selection coefficient … (log2)” value runs as follows: (methotrexate 8.8 µM) -0.53 ± 0.11; (methotrexate 44 µM) -0.356 ± 0.011.

In the case of S37M, the “selection coefficient … (log2)” value by setting is: (methotrexate 8.8 µM) -0.215 ± 0.028; (methotrexate 44 µM) -0.16 ± 0.12.

On to R161E, for which the “selection coefficient … (log2)” value was found to be 0.358 ± 0.025 (methotrexate 8.8 µM) and 0.334 ± 0.0067 (methotrexate 44 µM).

In the case of R161I, the “selection coefficient … (log2)” value is -0.00388 ± 0.065 (methotrexate 8.8 µM) and -0.0613 ± 0.079 (methotrexate 44 µM).

As for I196N, the “selection coefficient … (log2)” value (methotrexate 8.8 µM) is 0.141 ± 0.02 and the “selection coefficient … (log2)” value (methotrexate 44 µM) was 0.173 ± 0.073.

For D110S, the “selection coefficient … (log2)” value by setting is: (methotrexate 8.8 µM) -0.0646 ± 0.084; (methotrexate 44 µM) 0.0392 ± 0.073.

P186Y: the “selection coefficient … (log2)” value reads like this: (methotrexate 8.8 µM) -0.496 ± 0.16; (methotrexate 44 µM) -0.239 ± 0.021.

Consider M33W, for which the “selection coefficient … (log2)” value came out at 0.899 ± 0.053 (methotrexate 8.8 µM) and 1.19 ± 0.023 (methotrexate 44 µM).

As to M33Q, the “selection coefficient … (log2)” value (methotrexate 8.8 µM) was 0.938 ± 0.034 and the “selection coefficient … (log2)” value (methotrexate 44 µM) was determined as 1.22 ± 0.017.

With F155H, the “selection coefficient … (log2)” value is, setting by setting: (methotrexate 8.8 µM) 0.142 ± 0.086; (methotrexate 44 µM) 0.0749 ± 0.091.

Take F155T: the “selection coefficient … (log2)” value (methotrexate 8.8 µM) came out at 0.332 ± 0.035 and the “selection coefficient … (log2)” value (methotrexate 44 µM) was determined as 0.308 ± 0.045.

Take L25F: the “selection coefficient … (log2)” value (methotrexate 8.8 µM) was -0.264 ± 0.043 and the “selection coefficient … (log2)” value (methotrexate 44 µM) is -0.0854 ± 0.09.

For L25N, the “selection coefficient … (log2)” value is 0.0485 ± 0.0083 (methotrexate 8.8 µM) and 0.037 ± 0.047 (methotrexate 44 µM).

As to P71H, the “selection coefficient … (log2)” value (methotrexate 8.8 µM) was determined as 0.346 ± 0.029 and the “selection coefficient … (log2)” value (methotrexate 44 µM) is 0.376 ± 0.048.

For the variant P71T, the “selection coefficient … (log2)” value came out at 0.365 ± 0.033 (methotrexate 8.8 µM) and 0.433 ± 0.04 (methotrexate 44 µM).

As for P71V, the “selection coefficient … (log2)” value reads like this: (methotrexate 8.8 µM) 0.324 ± 0.021; (methotrexate 44 µM) 0.382 ± 0.024.

Regarding Q83E, the “selection coefficient … (log2)” value (methotrexate 8.8 µM) came out at 0.0646 ± 0.012 and the “selection coefficient … (log2)” value (methotrexate 44 µM) is -0.082 ± 0.13.

Q83M: the “selection coefficient … (log2)” value is -0.384 ± 0.085 (methotrexate 8.8 µM) and -0.376 ± 0.045 (methotrexate 44 µM).

As to D99S, the “selection coefficient … (log2)” value was -0.284 ± 0.098 (methotrexate 8.8 µM) and -0.226 ± 0.09 (methotrexate 44 µM).

With D99T, the “selection coefficient … (log2)” value by setting is: (methotrexate 8.8 µM) -0.244 ± 0.053; (methotrexate 44 µM) -0.223 ± 0.063.

Regarding L13N, the “selection coefficient … (log2)” value by setting is: (methotrexate 8.8 µM) 0.322 ± 0.05; (methotrexate 44 µM) 0.357 ± 0.057.

As for L13T, the “selection coefficient … (log2)” value was 0.37 ± 0.081 (methotrexate 8.8 µM) and 0.327 ± 0.11 (methotrexate 44 µM).

Y197N: the “selection coefficient … (log2)” value (methotrexate 8.8 µM) was -0.0201 ± 0.041 and the “selection coefficient … (log2)” value (methotrexate 44 µM) was -0.28 ± 0.04.

In the case of R17M, the “selection coefficient … (log2)” value was -0.324 ± 0.14 (methotrexate 8.8 µM) and -0.24 ± 0.084 (methotrexate 44 µM).

As for S6K, the “selection coefficient … (log2)” value came out at 0.233 ± 0.046 (methotrexate 8.8 µM) and 0.17 ± 0.058 (methotrexate 44 µM).

On to K22P, for which the “selection coefficient … (log2)” value runs as follows: (methotrexate 8.8 µM) -0.309 ± 0.069; (methotrexate 44 µM) -0.227 ± 0.12.

For G58P, the “selection coefficient … (log2)” value runs as follows: (methotrexate 8.8 µM) -0.495 ± 0.12; (methotrexate 44 µM) -0.302 ± 0.053.

Take F160A: the “selection coefficient … (log2)” value amounted to 0.446 ± 0.048 (methotrexate 8.8 µM) and 0.439 ± 0.039 (methotrexate 44 µM).

Turning to F160P, the “selection coefficient … (log2)” value runs as follows: (methotrexate 8.8 µM) 0.281 ± 0.089; (methotrexate 44 µM) 0.247 ± 0.065.

Regarding F160W, the “selection coefficient … (log2)” value (methotrexate 8.8 µM) is -0.00957 ± 0.018 and the “selection coefficient … (log2)” value (methotrexate 44 µM) is -0.101 ± 0.13.

Regarding V145D, the “selection coefficient … (log2)” value runs as follows: (methotrexate 8.8 µM) -0.0762 ± 0.059; (methotrexate 44 µM) -0.0366 ± 0.048.

As for V145T, the “selection coefficient … (log2)” value was 0.037 ± 0.043 (methotrexate 8.8 µM) and 0.0896 ± 0.072 (methotrexate 44 µM).
